{"source": "PubChem BioAssay AID1347165", "about": "(National Center for Advancing Translational Sciences (NCATS), 2019)", "note": "Hit rate of the full screen: of about 220,000 compounds, about 5,700 (2.6%) were called active. The shares of active, inactive and inconclusive entries below differ from those in the screen. Calls follow the shape of the dose curve; as a rule, active = well fitted inhibition curve with a large enough effect; inconclusive = small, poorly fitted or top-dose-only effect; inactive = no such curve, though single readings can be large or run the other way. Potencies of inconclusive entries are doubtful fits and often do not repeat. Potency is read from the fitted curve at half-maximal effect; tags tell the direction and shape of the fitted curve."}
{"target": "Lysine-specific demethylase 5B (Homo sapiens) (UniProt Q9UGL1)", "sequence (Q9UGL1 whole entry, looked up)": "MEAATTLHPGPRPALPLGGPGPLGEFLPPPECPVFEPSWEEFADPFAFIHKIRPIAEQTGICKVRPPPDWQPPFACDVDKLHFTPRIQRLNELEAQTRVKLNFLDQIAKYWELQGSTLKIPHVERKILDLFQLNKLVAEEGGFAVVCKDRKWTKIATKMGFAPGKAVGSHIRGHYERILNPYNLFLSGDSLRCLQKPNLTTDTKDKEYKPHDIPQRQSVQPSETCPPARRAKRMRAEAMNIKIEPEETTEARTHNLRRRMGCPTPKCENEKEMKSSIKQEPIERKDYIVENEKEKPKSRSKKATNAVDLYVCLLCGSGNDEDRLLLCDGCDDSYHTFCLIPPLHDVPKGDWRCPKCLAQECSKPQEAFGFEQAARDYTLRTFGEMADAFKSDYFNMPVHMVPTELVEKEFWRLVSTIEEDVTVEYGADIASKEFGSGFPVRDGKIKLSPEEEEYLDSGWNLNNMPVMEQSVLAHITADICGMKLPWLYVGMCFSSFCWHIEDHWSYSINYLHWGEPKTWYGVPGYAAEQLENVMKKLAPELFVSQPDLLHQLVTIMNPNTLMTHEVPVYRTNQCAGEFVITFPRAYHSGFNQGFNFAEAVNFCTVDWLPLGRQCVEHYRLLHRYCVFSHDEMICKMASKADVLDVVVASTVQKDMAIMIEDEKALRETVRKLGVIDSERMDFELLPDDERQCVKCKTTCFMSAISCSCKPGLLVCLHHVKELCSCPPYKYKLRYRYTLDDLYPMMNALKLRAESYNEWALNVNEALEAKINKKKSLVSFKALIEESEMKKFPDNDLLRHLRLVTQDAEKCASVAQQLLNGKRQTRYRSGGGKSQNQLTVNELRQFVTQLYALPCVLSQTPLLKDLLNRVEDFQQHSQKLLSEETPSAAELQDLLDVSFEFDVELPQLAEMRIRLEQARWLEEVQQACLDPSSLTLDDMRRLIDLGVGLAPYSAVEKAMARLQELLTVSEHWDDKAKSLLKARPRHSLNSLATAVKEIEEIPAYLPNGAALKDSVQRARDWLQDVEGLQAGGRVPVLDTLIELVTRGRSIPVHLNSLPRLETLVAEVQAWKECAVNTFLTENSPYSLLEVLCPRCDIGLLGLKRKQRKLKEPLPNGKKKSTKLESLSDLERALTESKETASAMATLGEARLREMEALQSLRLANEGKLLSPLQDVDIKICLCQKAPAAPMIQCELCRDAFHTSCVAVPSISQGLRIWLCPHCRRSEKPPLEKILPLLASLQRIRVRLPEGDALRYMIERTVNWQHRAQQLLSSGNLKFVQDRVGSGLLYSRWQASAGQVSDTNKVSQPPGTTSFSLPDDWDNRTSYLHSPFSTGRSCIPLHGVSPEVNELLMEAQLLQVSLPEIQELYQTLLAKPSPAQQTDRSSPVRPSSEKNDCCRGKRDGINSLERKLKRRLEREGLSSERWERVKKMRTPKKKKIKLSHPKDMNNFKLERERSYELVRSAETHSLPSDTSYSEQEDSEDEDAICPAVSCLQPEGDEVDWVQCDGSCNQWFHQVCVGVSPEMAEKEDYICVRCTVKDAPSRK", "experiment": "Primary screen for KDM5B Histone Demethylases FDH-coupled qHTS; also: nearly all actives have a fitted effect of over 70% in size; as to activity change, negative = inhibition: 0% is about no effect", "conditions": "FDH-coupled NADH fluorescence (FDH is formaldehyde dehydrogenase); activity change, negative = inhibition: at 57.7 µM (top of the series) unless noted", "summary_of_the_method": "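Coupled FDH/NAD⁺ fluorescence readout. KDM5BΔAP 200 nM final; compound titration, 10 min RT preincubation; substrate mix 12.5 µM H3K4me3, 25 µM 2-OG, 50 µM Fe(II), 100 µM ascorbate, 0.25 mM NAD⁺, 0.25 U/mL FDH; ΔRFU over 30 min.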"}
{"smiles": "O=C(Nc1ccc2nc3n(c(=O)c2c1)CCCCC3)C(=O)Nc1ccccc1F", "Potency": "inconclusive: 35.5 µM [inhibitor, partial curve, poor fit]"}
{"smiles": "CCN(c1ccc(NC(=O)CSc2ncnc3ccccc23)cc1)C(C)C", "activity change, negative = inhibition": "inactive: -7.11%"}
{"smiles": "COc1ccc(CCNC(=O)CN2C(=O)COc3ccc(C)cc32)cc1OC", "activity change, negative = inhibition": "inactive: -4.14%"}
{"smiles": "Cc1nn(C)cc1C(=O)N1CCC2(CC1)CN(c1ncccn1)CC2CO", "note": "(centres undefined)", "Potency": "active: 28.2 µM"}
{"smiles": "COc1ccccc1N(CC(=O)N1CCC(C)CC1)S(=O)(=O)c1ccc(C)cc1", "activity change, negative = inhibition": "inactive: -8.83%"}
{"smiles": "Cn1cc(-c2cnc3[nH]cc(CC(=O)NCc4cccc(F)c4)c3c2)cn1", "Potency": "active: 31.6 µM"}
{"smiles": "O=C(c1cc(-c2cccc(Cl)c2)nc2ccccc12)N1CCN(c2ccccn2)CC1", "Potency": "inconclusive: 28.2 µM [inhibitor, single point]"}
{"smiles": "c1cncc(CN2CCc3c(sc4ncnc(N5CCCC5)c34)C2)c1", "Potency": "inconclusive: 28.2 µM [inhibitor, partial curve, poor fit]"}
{"smiles": "CNC(=O)C(CC(C)C)NC(=O)Cc1nc(-c2cccs2)oc1C", "note": "(centres undefined)", "Potency": "inconclusive: 28.2 µM [inhibitor, partial curve, poor fit]"}
{"smiles": "COc1ccc(-c2cc(C(F)(F)F)nc(SCC(=O)N3CCCCC3)n2)cc1OC", "Potency": "inconclusive: 7.08 µM [inhibitor, partial curve, poor fit]"}
{"smiles": "COc1cc(Br)c(/C=C(/C#N)C(=O)c2ccccc2)cc1O", "Potency": "inconclusive: 28.2 µM [inhibitor, single point]"}
{"smiles": "COc1ccc(OC)c(S(=O)(=O)N2Cc3ccccc3CC2C(=O)Nc2ccc(C)cc2C)c1", "note": "(centres undefined)", "Potency": "inconclusive: 31.6 µM [inhibitor, single point]"}
{"smiles": "O=c1c2ccc(Cl)cc2ncn1Cc1ncc(-c2ccccc2)o1", "activity change, negative = inhibition": "inactive: 2.36%"}
{"smiles": "Cc1ccccc1Cn1cnc(NC(=O)c2ccn(COc3ccc(F)cc3F)n2)n1", "activity change, negative = inhibition": "inactive: 14.8%"}
{"smiles": "O=C(O)c1ccc(COc2ccccc2/C=N/O)cc1", "activity change, negative = inhibition": "inactive: 8.18%"}
{"smiles": "COc1ccc(S(=O)(=O)NCc2cccn2Cc2cccc(C)c2)cc1Cl", "Potency": "inconclusive: 1.41 µM [inhibitor, partial curve, poor fit]"}
{"smiles": "Cc1ccc(-c2nc(CC(=O)NCc3ccc(F)c(C)c3)cs2)o1", "Potency": "inconclusive: 22.4 µM [inhibitor, partial curve, poor fit]"}
{"smiles": "O=C1CC(c2cc(Br)ccc2F)c2cc3c(cc2N1)OCO3", "note": "(centres undefined)", "activity change, negative = inhibition": "inactive: -16.3%"}
{"smiles": "CC(C)c1noc(-c2ccn3c(CNC(=O)c4ccc5ccccc5n4)nnc3c2)n1", "Potency": "inconclusive: 31.6 µM [inhibitor, partial curve, poor fit]"}
{"smiles": "CC(C)(C)CC(=O)N1CCN(c2nc(-c3ccccc3)nc3c2CCC3)CC1", "activity change, negative = inhibition": "inactive: -23.3%"}
{"smiles": "Cc1nc(C(C)C)ncc1C(=O)N1CCC2(CCCN(C)C2=O)C1", "note": "(centres undefined)", "activity change, negative = inhibition": "inactive: -16.5%"}
{"smiles": "CN(C)CCNC(=O)c1nc2nc(-c3ccccc3)c(-c3ccncc3)cc2n1C", "Potency": "active: 22.4 µM"}
{"smiles": "CC(C)Cc1noc(CSc2cc(C(N)=O)c3ccccc3n2)n1", "activity change, negative = inhibition": "inactive: -1.04%"}
{"smiles": "COc1cc(/C=C(/C#N)C(=O)c2ccccc2)ccc1OC(F)F", "Potency": "inconclusive: 39.8 µM [inhibitor, single point]"}
{"smiles": "O=C(OCc1cccc(Cl)c1)c1ccc(C2Nc3ccccc3S(=O)(=O)N2)cc1", "note": "(centres undefined)", "Potency": "inconclusive: 22.4 µM [inhibitor, partial curve, poor fit]"}
{"smiles": "Cc1ccccc1CN1Cc2nc(-c3ccc4c(c3)OCO4)ccc2OCC1=O", "Potency": "active: 35.5 µM"}
{"smiles": "COc1ccccc1CN[C@H]1Cc2ccc(cc2)Nc2cc(ccc2OC)C[C@H](C(=O)NCc2ccccc2)N(C)C1=O", "activity change, negative = inhibition": "inactive: -24.4%"}
{"smiles": "COc1cccc(-c2n[nH]c(=S)n2Cc2ccco2)c1", "Potency": "inconclusive: 39.8 µM [inhibitor, single point]"}
{"smiles": "CCCCN(C)CCCNC(=O)Cn1ncc2c3ccccc3n(Cc3cccc(Cl)c3)c2c1=O", "Potency": "inconclusive: 5.62 µM [inhibitor, partial curve, poor fit]"}
{"smiles": "CCOc1ccccc1C(=O)Oc1c(S(=O)(=O)c2ccc(C)cc2)c(C)nn1-c1ccccc1", "Potency": "inconclusive: 28.2 µM [inhibitor, partial curve, poor fit]"}
{"smiles": "Cc1ccccc1CN1CCc2nc(N3CCN(c4ncccn4)CC3)ncc2C1", "Potency": "inconclusive: 31.6 µM [inhibitor, partial curve, poor fit]"}
{"smiles": "O=C(CC1CCCCC1)N1CCC(n2cc(-c3nc(-c4ccccc4)no3)nn2)CC1", "activity change, negative = inhibition": "inactive: -20.3%"}
{"smiles": "O=C(Cn1c(=O)n(-c2ccccc2)c(=O)c2ccc(C(=O)NCc3ccc4c(c3)OCO4)cc21)Nc1ccc(F)cc1", "Potency": "inconclusive: 1.78 µM [inhibitor, full curve, poor fit]"}
{"smiles": "CCOc1ccc(CNC(=O)c2ccc(NC(=O)c3nnc(C)s3)cc2)cc1", "activity change, negative = inhibition": "inactive: -9.54%"}
{"smiles": "NC(=O)CCS(=O)(=O)CCN1CCN(S(=O)(=O)c2ccc3c(c2)CCC3)CC1", "activity change, negative = inhibition": "inactive: 23.7%"}
{"smiles": "COCCNC(=O)c1cc(C2CC2)nc2c1c(C1CCCNC1)nn2C", "note": "(centres undefined)", "Potency": "active: 89.1 µM"}
{"smiles": "CN1C[C@@H](NC(=O)c2ccc(C(C)(C)C)cc2)C[C@H]1c1nc(-c2ccc3ccccc3c2)no1", "Potency": "active: 25.1 µM"}
{"smiles": "FC(F)(F)c1ccccc1-c1cc(-c2cccnc2)c2cncn2c1", "Potency": "inconclusive: 35.5 µM [inhibitor, partial curve, poor fit]"}
{"smiles": "CN(C)/C=C/C(=O)c1ccccn1", "Potency": "inconclusive: 39.8 µM [inhibitor, single point]"}
{"smiles": "CCOCCNc1ncnc2c1CN(C1CCCNC1)C(=O)CN2C", "note": "(centres undefined)", "Potency": "inconclusive: 50.1 µM [inhibitor, partial curve]"}
{"smiles": "C=CC[C@@H]1Cc2c(Br)ccc(Br)c2[C@@H](CC=C)N1", "Potency": "inconclusive: 25.1 µM [inhibitor, partial curve, poor fit]"}
{"smiles": "Cc1ccc2nc(C)cc(C(=O)OC(C)C(=O)NC3CCCC3)c2c1", "note": "(centres undefined)", "Potency": "inconclusive: 22.4 µM [inhibitor, partial curve, poor fit]"}
{"smiles": "CCCCCCCCOC(=O)/C(C#N)=C/c1ccc(-c2ccccc2)o1", "activity change, negative = inhibition": "inactive: 4.84%"}
{"smiles": "CCNS(=O)(=O)c1ccc(C(=O)OCc2cc(=O)oc3cc(OC)ccc23)cc1", "Potency": "inconclusive: 17.8 µM [inhibitor, partial curve, poor fit]"}
